Source: PubChem BioAssay AID1476 (National Center for Advancing Translational Sciences (NCATS), 2009)
Hit rate of the full screen: of about 200,000 compounds, about 4,500 (2.2%) were called active. Inconclusive means that the source gave no clear call. Such entries were picked first, then a sample of the others. The call rests on the fitted dose curve; in most records, active means well fitted inhibition curve with a large enough effect; inconclusive means small, poorly fitted or top-dose-only effect, or effect the other way; inactive means flat fitted curve, though single readings scatter. Potencies of inconclusive entries are doubtful fits and often do not repeat.

Biological target: Cruzipain (Trypanosoma cruzi) (UniProt P25779)
Sequence of UniProt P25779 (P25779 whole entry, looked up): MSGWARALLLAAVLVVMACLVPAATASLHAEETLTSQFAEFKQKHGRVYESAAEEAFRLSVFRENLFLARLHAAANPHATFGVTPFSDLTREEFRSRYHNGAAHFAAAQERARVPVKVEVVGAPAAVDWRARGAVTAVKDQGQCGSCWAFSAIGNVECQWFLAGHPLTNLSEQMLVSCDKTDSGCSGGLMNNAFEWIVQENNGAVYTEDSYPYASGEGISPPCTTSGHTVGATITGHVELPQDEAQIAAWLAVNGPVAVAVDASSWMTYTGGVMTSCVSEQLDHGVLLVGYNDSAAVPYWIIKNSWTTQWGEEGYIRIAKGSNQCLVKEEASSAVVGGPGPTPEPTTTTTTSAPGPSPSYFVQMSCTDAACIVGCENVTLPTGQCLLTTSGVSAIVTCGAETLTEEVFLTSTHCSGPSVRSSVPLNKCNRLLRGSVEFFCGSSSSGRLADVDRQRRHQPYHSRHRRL
Assay: qHTS Assay for Promiscuous and Specific Inhibitors of Cruzain (without detergent); further: nearly all actives have a fitted effect of over 40% in size;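 on max response, negative = inhibition: plate controls were enzyme without inhibitor for no effect and buffer without enzyme for full effect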
Conditions: purified cruzain, Z-FR-AMC fluorescence, no detergent
Method in brief: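 Detergent-free condition (0.00005% Triton X-100) in acetate buffer pH 5.5 with DTT. 1.5 nM enzyme and compound were pre-mixed 15 min, then 2 uM Z-FR-AMC substrate added; reaction progress from fluorescence change between first and third reads (60 s).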
Potency means the concentration at half of the fitted maximal effect; tags describe the fitted curve by direction and shape.

Row | Compound | Potency | max response, negative = inhibition
1 | COc1ccc(NC(=O)C2CCCN(S(=O)(=O)c3ccc(C)cc3)C2)cc1OC (stereo not drawn) | inconclusive: 39.8 µM [activator, single point] | –
2 | COc1ccc(NC(=O)C2=C(C)Nc3c(C(=O)Nc4ccc(C)cc4)cnn3C2c2cccc(Cl)c2)cc1 (stereo not drawn) | active: 15.8 µM | –
3 | CCCCN(CC)C(=O)c1c[nH]c2ccc(S(=O)(=O)Nc3cccc(OC)c3)cc2c1=O | – | inactive: -1.35%
4 | Cc1cc(C)c2nc(N3CCCC(C(=O)N4CCC(C(N)=O)CC4)C3)sc2c1 (stereo not drawn) | inconclusive: 25.1 µM [activator, partial curve] | –
5 | CCOC(=O)N1CCN(S(=O)(=O)c2ccc(C(=O)Nc3nc4ccccc4s3)cc2)CC1 | inconclusive: 6.31 µM [activator, single point] | –
6 | C=CCC(O)(C#Cc1ccccc1)c1ccccc1 (stereo not drawn) | – | inactive: 13.8%
7 | COc1ccc(NC(=O)c2sc3nc(Cc4ccccc4)cc(C(F)(F)F)c3c2N)cc1OC | inconclusive: 12.6 µM [activator, partial curve] | –
8 | CCC(C)C1O[C@]2(C=CC1C)CC1CC(C/C=C(\C)[C@H](OC3CC(OC)C(O[C@H]4CC(OC)[C@@H](O)C(C)O4)C(C)O3)[C@@H](C)/C=C/C=C3\COC4C(O)C(C)=C[C@H](C(=O)O1)[C@@]34O)O2 (stereo partly drawn) | inconclusive: 25.1 µM [activator, partial curve] | –
9 | COC(=O)c1ccc(C(NC(=O)OCc2ccccc2)/C(C)=C/[C@@H](C)C(=O)NCc2ccc(OC)c(OC)c2)cc1 (stereo partly drawn) | inconclusive: 39.8 µM [activator, single point] | –
10 | O=C(Nc1ccccc1C(F)(F)F)Nc1cccc2ccccc12 | active: 25.1 µM | –
11 | CC(C)CCNC(=O)c1c(N)n(Cc2ccc3c(c2)OCO3)c2nc3ccccc3nc12 | inconclusive: 3.98 µM [inhibitor, full curve] | –
12 | O=C(Nc1nc2c(s1)COc1ccccc1-2)c1cccs1 | inconclusive: 20 µM [inhibitor, partial curve, poor fit] | –
13 | O=C(Nc1cccc(C(F)(F)F)c1)c1cc2nc(-c3ccccc3)cc(C(F)(F)F)n2n1 | – | inactive: 12%
14 | Cn1c2ccc(Cl)cc2c2nc3ccccc3nc21 | inconclusive: 31.6 µM [activator, single point] | –
15 | Cc1nc(NC(=O)c2ccccc2)sc1-c1csc(NCc2ccco2)n1 | active: 15.8 µM | –
16 | O=S(=O)(c1ccc(Br)cc1)c1nc(-c2ccco2)oc1SCc1ccccc1F | inconclusive: 39.8 µM [inhibitor, single point] | –
17 | CCn1c(C)c(C2=CCN(S(=O)(=O)c3ccc(C)cc3)CC2)c2ccccc21 | inconclusive: 25.1 µM [inhibitor, single point] | –
18 | CCCOC(=O)c1ccc(NC(=O)Cn2nnc3sc4c(c3c2=O)CCC(C(C)(C)C)C4)cc1 (stereo not drawn) | inconclusive: 3.16 µM [inhibitor, full curve, poor fit] | –
19 | CC1CCCN(c2ccc(C(=O)OCC(=O)N3c4ccccc4Sc4ccccc43)cc2[N+](=O)[O-])C1 (stereo not drawn) | active: 3.98 µM | –
20 | C[C@]12CCC3C(CC=C4C[C@@H](O)CC[C@@]43C)C1CCC2[C@]1(C)CCC(=O)O1 (stereo partly drawn) | inconclusive: 31.6 µM [inhibitor, single point] | –
21 | O=C(Nc1nc(-c2ccc(Cl)s2)cs1)c1cccs1 | inconclusive: 15.8 µM [inhibitor, single point] | –

Row | Compound | Potency | max response, negative = inhibition
22 | Cc1ccc(CSc2oc(-c3ccco3)nc2S(=O)(=O)c2ccc(Cl)cc2)cc1 | inconclusive: 39.8 µM [inhibitor, single point] | –
23 | CCSC1(SCC)N=C(N)C2(C#N)C(c3ccccc3)NC3=C(CCC3)C12C#N (stereo not drawn) | inconclusive: 31.6 µM [inhibitor, single point] | –
24 | COc1ncc2nc(-c3ccc(Cl)cc3)c(=O)n(Cc3cccs3)c2n1 | – | inactive: 0.714%
25 | CCOC(=O)c1cnc(Nc2nc3ccccc3o2)nc1C | inconclusive: 39.8 µM [activator, single point] | –
26 | CCOC(=O)N1CCN(C(=O)c2ccc3c(=O)n(Cc4ccc(OC)cc4)c(=S)[nH]c3c2)CC1 | inconclusive: 31.6 µM [activator, single point] | –
27 | C/C(N)=C(/C#N)C(=O)COC(=O)C1CCC(C(C)(C)C)CC1 (stereo not drawn) | inconclusive: 31.6 µM [activator, single point] | –
28 | O=C(Nc1nc(-c2ccccc2)cs1)C1CCCN(S(=O)(=O)c2cccc([N+](=O)[O-])c2)C1 (stereo not drawn) | active: 7.94 µM | –
29 | O=C(CCc1nc2ccccc2c(=O)[nH]1)OCC(=O)c1ccc(C2CCCCC2)cc1 | active: 15.8 µM | –
30 | CCCCn1c(SCC(=O)Nc2cccc(OC)c2)nc2ccsc2c1=O | – | inactive: 6.33%
31 | CCOc1ccc(CCNC(=O)CN(C)S(=O)(=O)c2ccc3c(c2)CCC(=O)N3)cc1OCC | inconclusive: 39.8 µM [activator, single point] | –
32 | COc1cc(/C=N/NC(N)=S)ccc1OC(=O)c1ccc(C)cc1 | active: 2.51 µM | –
33 | COc1ccc(Nc2ncnc3onc(-c4ccc(Cl)cc4)c23)cc1Cl | – | inactive: -4.97%
34 | CCc1nn(CC(=O)Nc2ccc(C)cc2C)c(=O)c2cc3sccc3n12 | – | inactive: 7.23%
35 | CCc1cccc(CC)c1N(COC)C(=O)Cn1c(C)nc2ccccc21 | – | inactive: 13.7%
36 | COc1cccc(-c2cc(C(=O)Nc3ccc([N+](=O)[O-])cn3)c3ccccc3n2)c1 | inconclusive: 25.1 µM [inhibitor, single point] | –
37 | CC(=O)c1nnn(-c2nc(N)nc(N(c3ccccc3)c3ccccc3)n2)c1C | inconclusive: 39.8 µM [activator, single point] | –
38 | CC1(C)CC(=O)c2c(-c3cccs3)n[nH]c2C1 | inconclusive: 0.0063 µM [inhibitor, full curve, poor fit] | –
39 | Cc1ccc(-c2ccc(=O)n(CC(=O)Nc3ccc(C(C)C)cc3)n2)cc1 | – | inactive: -5.32%
40 | CCOC(=O)C(C(=O)c1ccccc1)[C@H](CCc1ccccc1)NC(=O)OC (stereo partly drawn) | – | inactive: 1.79%
41 | COc1cccc2c1C(=O)c1c(O)c3c(c(O)c1C2=O)C[C@](O)(/C(C)=N\O)C[C@@H]3O[C@H]1C[C@H](N)[C@@H](O)[C@H](C)O1 | – | inactive: -12.8%
42 | Cc1ccc(Cn2ccn(Cc3cccc(C(F)(F)F)c3)c(=O)c2=O)cc1 | inconclusive: 39.8 µM [activator, single point] | –

Row | Compound | Potency | max response, negative = inhibition
43 | COc1cccc(NC(=O)CSc2nc3c([nH]c4ccccc43)c(=O)n2-c2cccc(Cl)c2)c1 | – | inactive: -22.1%
44 | COc1ccc(CN2C(=O)C(NC(=O)c3ccccc3OC)(C(F)(F)F)N=C2c2ccccc2)cc1 (stereo not drawn) | – | inactive: 21.4%
45 | CCOc1ccc(CNC(=O)CCCn2c(=O)c3cccn3c3ccc(F)cc32)cc1 | – | inactive: 8.44%
46 | COc1ccc(OCC(O)Cn2c(Nc3cccc(C)c3)nc3c2c(=O)n(C)c(=O)n3C)cc1 (stereo not drawn) | inconclusive: 39.8 µM [activator, single point] | –
47 | CCOc1ccc(OC(=O)C(CCS(C)(=O)=O)N2C(=O)c3ccccc3C2=O)cc1 (stereo not drawn) | inconclusive: 31.6 µM [activator, single point] | –
48 | CCOc1ccccc1CNC(=O)CN1C(=O)CCc2cc(S(=O)(=O)N3CCCCC3)ccc21 | inconclusive: 39.8 µM [activator, single point] | –
49 | CCOC(=O)c1c(-c2ccccc2)oc2ccc(NS(=O)(=O)c3ccc(C(C)C)cc3)cc12 | active: 20 µM | –
50 | CCn1c(CNC(=O)c2cccc(C)c2)nc2ccccc21 | inconclusive: 10 µM [inhibitor, partial curve] | –
51 | CCOCCCn1c(=N)c(C(=O)NCC2CCCO2)cc2c(=O)n3cc(C)ccc3nc21 (stereo not drawn) | inconclusive: 3.16 µM [activator, single point] | –
52 | COC(=O)c1sc2nc(SCc3ccccc3C)n(N)c(=O)c2c1C | active: 31.6 µM | –
53 | COCCNC(=O)CSc1nc(-c2ccc(C)cc2)nc2c1c(=O)n(C)c(=O)n2C | inconclusive: 3.98 µM [activator, single point] | –
54 | O=S(=O)(c1cnccc1N1CCN(/N=C/c2ccc(Cl)cc2)CC1)N1CCCCC1 | inconclusive: 25.1 µM [activator, single point] | –
55 | N#Cc1cccc(-c2nccc(-n3ccnc3)n2)c1 | – | inactive: -1.21%
56 | C/C(=N\NC(=O)c1c(Br)c(C)nn1C)c1ccc(NC(=O)c2ccoc2C)cc1 | inconclusive: 31.6 µM [activator, single point] | –
57 | CC(Sc1nc(-c2ccccc2)nc2c1COC(C)(C)C2)C(=O)N1CCOCC1 (stereo not drawn) | inconclusive: 31.6 µM [activator, single point] | –
58 | COc1ccc(NC(=O)CN2C(=O)C(c3ccccc3)=NC23CCCCCC3)cc1OC | inconclusive: 39.8 µM [activator, single point] | –
59 | O=S(=O)(NC1c2cccc3cccc(c23)C1Sc1ncccn1)c1ccccc1 (stereo not drawn) | inconclusive: 31.6 µM [inhibitor, single point] | –
60 | O=C(COC(=O)c1c2c(nc3ccccc13)/C(=C\c1cccs1)CCC2)Nc1ccccc1Cl | active: 31.6 µM | –
61 | CCN(CC)S(=O)(=O)c1ccc(N2CCOCC2)c(NC(=O)C23CC4CC(CC(Cl)(C4)C2)C3)c1 | inconclusive: 31.6 µM [activator, single point] | –
62 | O=c1[nH]c(CSc2nnc(COc3ccccc3)n2-c2ccccc2)nc2ccccc12 | inconclusive: 31.6 µM [inhibitor, single point] | –
63 | O=S(=O)(c1ccc2ccccc2c1)N1CCN(C(=S)Nc2ccc(F)c(Cl)c2)CC1 | inconclusive: 39.8 µM [inhibitor, single point] | –
